# Data from the supplement of paper PMC8728848.
# The list shows a part of the results.
# Key:
# Experiment in all cases: glycan array binding signal (z-score within array); higher = stronger binding
# Conditions in all cases: glycan notation: IUPAC condensed, linker removed
# Fuc(a1-2)Gal = target: Fuc(a1-2)Gal
# Method in brief: (§1)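 Columns mapping to the same glycan were averaged after glycan names were converted to IUPAC-condensed notation. The data come from 3228 arrays in the Consortium for Functional Glycomics database, limited to those with an available protein sequence. Binding is reported as a within-array Z-score averaged across arrays of one protein sequence and across linkers.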
# Fuc(a1-2)Gal(b1-3)GalNAc = target: Fuc(a1-2)Gal(b1-3)GalNAc
# Method in brief: as §1
# [1] = target: Fuc(a1-2)Gal(b1-3)GalNAc(a1-3)[Fuc(a1-2)]Gal(b1-4)Glc
# Method in brief: as §1
# [2] = target: Fuc(a1-2)Gal(b1-3)GalNAc(a1-3)[Fuc(a1-2)]Gal(b1-4)GlcNAc
# Method in brief: as §1
# [3] = target: Fuc(a1-2)Gal(b1-3)GalNAc(b1-3)Gal
# Method in brief: as §1
# [4] = target: Fuc(a1-2)Gal(b1-3)GalNAc(b1-3)Gal(a1-4)Gal(b1-4)Glc
# Method in brief: as §1
# [5] = target: Fuc(a1-2)Gal(b1-3)GalNAc(b1-4)[Neu5Ac(a2-3)]Gal(b1-4)Glc
# Method in brief: as §1
# Fuc(a1-2)Gal(b1-3)GlcNAc = target: Fuc(a1-2)Gal(b1-3)GlcNAc
# Method in brief: as §1
# [6] = target: Fuc(a1-2)Gal(b1-3)GlcNAc(b1-2)Man(a1-3)[Fuc(a1-2)Gal(b1-3)GlcNAc(b1-2)Man(a1-6)]Man(b1-4)GlcNAc(b1-4)GlcNAc
# Method in brief: as §1
# [7] = target: Fuc(a1-2)Gal(b1-3)GlcNAc(b1-2)Man(a1-3)[Fuc(a1-2)Gal(b1-3)GlcNAc(b1-2)Man(a1-6)]Man(b1-4)GlcNAc(b1-4)[Fuc(a1-6)]GlcNAc
# Method in brief: as §1
# [8] = target: Fuc(a1-2)Gal(b1-3)GlcNAc(b1-3)Gal(b1-4)Glc
# Method in brief: as §1
# [9] = target: Fuc(a1-2)Gal(b1-3)GlcNAc(b1-3)GalNAc
# Method in brief: as §1
# [10] = target: Fuc(a1-2)Gal(b1-3)GlcNAc(b1-3)[Fuc(a1-2)Gal(b1-3)GlcNAc(b1-6)]GalNAc
# Method in brief: as §1
# [11] = target: Fuc(a1-2)Gal(b1-3)GlcNAc(b1-3)[Gal(b1-4)GlcNAc(b1-6)]Gal(b1-4)Glc
# Method in brief: as §1
# [12] = target: Fuc(a1-2)Gal(b1-3)GlcNAc(b1-3)[Neu5Ac(a2-6)Gal(b1-4)GlcNAc(b1-6)]Gal(b1-4)Glc
# Method in brief: as §1
# [13] = target: Fuc(a1-2)Gal(b1-3)GlcNAc6S
# Method in brief: as §1
# [14] = target: Fuc(a1-2)Gal(b1-3)[Fuc(a1-4)]GlcNAc
# Method in brief: as §1
# [15] = target: Fuc(a1-2)Gal(b1-3)[Fuc(a1-4)]GlcNAc(b1-2)Man(a1-3)[Fuc(a1-2)Gal(b1-3)[Fuc(a1-4)]GlcNAc(b1-2)Man(a1-3)]Man(b1-4)GlcNAc(b1-4)GlcNAc
# Method in brief: as §1
# [16] = target: Fuc(a1-2)Gal(b1-3)[Fuc(a1-4)]GlcNAc(b1-2)Man(a1-3)[Fuc(a1-2)Gal(b1-3)[Fuc(a1-4)]GlcNAc(b1-2)Man(a1-6)]Man(b1-4)GlcNAc(b1-4)[Fuc(a1-6)]GlcNAc(b1-4)[Fuc(a1-6)]GlcNAc
# Method in brief: as §1
# [17] = target: Fuc(a1-2)Gal(b1-3)[Fuc(a1-4)]GlcNAc(b1-3)[Fuc(a1-3)[Gal(b1-4)]GlcNAc(b1-6)]Gal(b1-4)Glc
# Method in brief: as §1
# [18] = target: Fuc(a1-2)Gal(b1-3)[Fuc(a1-4)]GlcNAc(b1-3)[Gal(b1-4)GlcNAc(b1-6)]Gal(b1-4)Glc
# Method in brief: as §1
# Fuc(a1-2)Gal(b1-4)Glc = target: Fuc(a1-2)Gal(b1-4)Glc
# Method in brief: as §1
# Fuc(a1-2)Gal(b1-4)Glc6S = target: Fuc(a1-2)Gal(b1-4)Glc6S
# Method in brief: as §1
# Fuc(a1-2)Gal(b1-4)GlcNAc = target: Fuc(a1-2)Gal(b1-4)GlcNAc
# Method in brief: as §1
# [19] = target: Fuc(a1-2)Gal(b1-4)GlcNAc(b1-2)Man
# Method in brief: as §1
# [20] = target: Fuc(a1-2)Gal(b1-4)GlcNAc(b1-2)Man(a1-3)[Fuc(a1-2)Gal(b1-4)GlcNAc(b1-2)Man(a1-6)]Man(b1-4)GlcNAc(b1-4)GlcNAc
# Method in brief: as §1
# [21] = target: Fuc(a1-2)Gal(b1-4)GlcNAc(b1-2)Man(a1-3)[Fuc(a1-2)Gal(b1-4)GlcNAc(b1-2)Man(a1-6)]Man(b1-4)GlcNAc(b1-4)[Fuc(a1-6)]GlcNAc
# Method in brief: as §1
# [22] = target: Fuc(a1-2)Gal(b1-4)GlcNAc(b1-2)[Fuc(a1-2)Gal(b1-4)GlcNAc(b1-4)]Man(a1-3)[Fuc(a1-2)Gal(b1-4)GlcNAc(b1-2)Man(a1-6)]Man(b1-4)GlcNAc(b1-4)GlcNAc
# Method in brief: as §1
# [23] = target: Fuc(a1-2)Gal(b1-4)GlcNAc(b1-3)Gal(b1-4)GlcNAc
# Method in brief: as §1
# [24] = target: Fuc(a1-2)Gal(b1-4)GlcNAc(b1-3)Gal(b1-4)GlcNAc(b1-2)Man(a1-3)[Fuc(a1-2)Gal(b1-4)GlcNAc(b1-3)Gal(b1-4)GlcNAc(b1-2)Man(a1-6)]Man(b1-4)GlcNAc(b1-4)GlcNAc
# Method in brief: as §1
binder,measurement,setting,value
CBM40 CPF071 (Clostridium perfringens) (protein) MAHHHHHHVGTGSNDDDDKSPDPMLSSLGEYKDINLESSNASNITYDLEKYKNLDEGTIVVRFNSKDSKIQSLLGISNSKTKNGYFNFYVTNSRVGFELRNQKNEGNTQNGTENLVHMYKDVALNDGDNTVALKIEKNKGYKLFLNGKMIKEVKDTNTKFLNNIENLDSAFIGKTNRYGQSNEYNFKGNIGFMNIYNEPLGDDYLLSKTGETK,glycan array binding signal (z-score),Fuc(a1-2)Gal,-0.208
same,glycan array binding signal (z-score),Fuc(a1-2)Gal(b1-3)GalNAc,-0.372
same,glycan array binding signal (z-score),[1],-0.212
same,glycan array binding signal (z-score),[2],-0.352
same,glycan array binding signal (z-score),[3],-0.348
same,glycan array binding signal (z-score),[4],-0.319
same,glycan array binding signal (z-score),[5],-0.026
same,glycan array binding signal (z-score),Fuc(a1-2)Gal(b1-3)GlcNAc,-0.384
same,glycan array binding signal (z-score),[6],-0.284
same,glycan array binding signal (z-score),[7],-0.389
same,glycan array binding signal (z-score),[8],-0.449
same,glycan array binding signal (z-score),[9],0.574
same,glycan array binding signal (z-score),[10],0.049
same,glycan array binding signal (z-score),[11],-0.319
same,glycan array binding signal (z-score),[12],0.311
same,glycan array binding signal (z-score),[13],-0.366
same,glycan array binding signal (z-score),[14],-0.015
same,glycan array binding signal (z-score),[15],0.148
same,glycan array binding signal (z-score),[16],0.652
same,glycan array binding signal (z-score),[17],0.335
same,glycan array binding signal (z-score),[18],-0.403
same,glycan array binding signal (z-score),Fuc(a1-2)Gal(b1-4)Glc,-0.55
same,glycan array binding signal (z-score),Fuc(a1-2)Gal(b1-4)Glc6S,-0.132
same,glycan array binding signal (z-score),Fuc(a1-2)Gal(b1-4)GlcNAc,-0.027
same,glycan array binding signal (z-score),[19],-0.627
same,glycan array binding signal (z-score),[20],-0.22
same,glycan array binding signal (z-score),[21],-0.265
same,glycan array binding signal (z-score),[22],-0.284
same,glycan array binding signal (z-score),[23],0.231
same,glycan array binding signal (z-score),[24],-0.32
